Measurements from PubChem BioAssay (NCI).
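The concentration for 50% growth inhibition is given as GI50.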 Some entries of the source have several records that differ or are many. This is not the full list of results. The source may hold further records. Records of one sample usually come from different ranges of test concentrations, which the source does not state; a value can be the end of its range.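 TGI: total growth inhibition.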

Columns and labels:
Test in all cases: growth of human tumour cells (NCI), 384-well format
[1] = system: MDA-MB-468 breast
[2] = system: SK-OV-3 ovarian
[3] = system: SF-295 CNS
[4] = system: UACC-257 melanoma
[5] = system: SF-539 CNS
[6] = system: A498 renal
[7] = system: M14 melanoma
[8] = system: EKVX NSCLC
[9] = system: UO-31 renal
[10] = system: COLO 205 colon
[11] = system: BT-549 breast
[12] = system: SN12C renal
[13] = system: SNB-75 CNS
[14] = system: MDA-MB-435 melanoma
[15] = system: NCI-H522 lung
[16] = system: SR leukemia
[17] = system: SK-MEL-5 melanoma
[18] = system: NCI-H226 lung
[19] = system: U251 glioblastoma

In the case of `Nc1nc2[nH]cc(CCc3ccc(C(=O)N[C@@H](CCC(=O)O)C(=O)O)cc3)c2c(=O)[nH]1`, the TGI [1] is reported as 464 nM and > 100 µM, the GI50 [2] is reported as > 50 µM and 70.3 nM and the TGI [3] is reported as 50 µM and 618 nM. The GI50 [4] was > 50 µM and 342 nM, the TGI [4] was > 50 µM and 935 nM and the TGI [5] was 50 µM and 573 nM. For the same compound, the GI50 [6] was 563 nM and 54.6 nM, the TGI [7] was 50 µM and 613 nM and the GI50 [8] was > 50 µM and 416 nM. For the same compound, the TGI [9] was 50 µM and 92.4 nM, the TGI [10] was 50 µM and 336 nM and the TGI [11] was 50 µM and 213 nM. For the same compound, the TGI [12] was 50 µM and 193 nM, the TGI [13] was 322 nM and > 100 µM and the GI50 [14] was 309 nM and > 100 µM. The TGI [15] was 50 µM and 860 nM, the TGI [16] was 50 µM and 55.7 nM and the GI50 [17] was > 50 µM and 3.66 µM. The TGI [18] was 50 µM and 67.4 nM and the TGI [19] was 50 µM and 958 nM.
